Data from PubChem BioAssay AID485344 (National Center for Advancing Translational Sciences (NCATS), 2010).
Screen size: about 340,000 compounds; about 6,900 (2%) were called active. Cut-off read from the data, not from the text of the source: active = inhibition above about 30%; inactive = below that, where a call was filed. The entries are a selection whose mix differs from that of the whole data set. Where no call is shown, the source filed none.

Molecular target: D(2) dopamine receptor (Homo sapiens) (UniProt P14416)
UniProt P14416, sequence (P14416 whole entry, looked up): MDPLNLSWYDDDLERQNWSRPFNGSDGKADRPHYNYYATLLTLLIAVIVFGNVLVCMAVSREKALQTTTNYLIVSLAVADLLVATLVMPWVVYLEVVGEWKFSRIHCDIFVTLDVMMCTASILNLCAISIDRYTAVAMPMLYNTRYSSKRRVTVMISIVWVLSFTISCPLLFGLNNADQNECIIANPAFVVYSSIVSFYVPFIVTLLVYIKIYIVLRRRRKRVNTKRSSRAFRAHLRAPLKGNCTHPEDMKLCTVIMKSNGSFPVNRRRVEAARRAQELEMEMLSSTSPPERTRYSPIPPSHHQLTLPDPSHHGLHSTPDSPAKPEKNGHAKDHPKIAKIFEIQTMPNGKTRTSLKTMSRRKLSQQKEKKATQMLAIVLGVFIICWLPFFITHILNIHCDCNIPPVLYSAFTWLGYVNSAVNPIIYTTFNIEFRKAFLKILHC
Assay: HTS Assay for Allosteric Antagonists of the Human D2 Dopamine Receptor: Primary Screen for Antagonists; note: 0% is about no effect
Conditions: HEK293 TREx D2 cells, calcium flux, dopamine EC80; at 10 µM; stronger effect = higher value
In short: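 Tetracycline-induced HEK293 TREx cells expressing D2 receptor forced-coupled to calcium signalling, loaded with no-wash calcium dye. Compounds added and calcium flux read 180 s, then dopamine added at EC80 and read a further 180 s.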

SMILES	inhibition
CC(=O)N1CCc2c(sc3c2c(=O)n(-c2ccccc2C)c(=O)n3CC(=O)c2ccccc2)C1	1.41%
COC(=O)c1ccc(C2C=C(c3ccc(Cl)cc3)Nc3nc4ccccc4n32)cc1 (stereo unspecified)	2.76%
O=C(CSc1nc(-c2ccc(F)cc2)nc2c1Cc1ccccc1O2)Nc1cccc(C(=O)O)c1	0.71%
N#Cc1cccc(NC(=O)C2CCN(c3cnccn3)CC2)c1	-11.3%
CC(=O)Nc1ccc(NC(=O)c2cc3c(=O)n(Cc4cccnc4)ccc3nc2C)cc1	10.8%
Cc1cc(C)n(CCc2nc3c4ccccc4nc(SCc4ccc(Cl)cc4)n3n2)n1	0.275%
O=C(NC1(C(F)(F)F)N=C(c2ccccc2)N(C2CCCCC2)C1=O)c1ccc(F)cc1 (stereo unspecified)	-9.8%
CCOc1ccc(NC(=O)CC2C(=O)N(c3ccc(C)cc3)C(=O)N2C2CCCCC2)cc1 (stereo unspecified)	-5.07%
Cn1ccc2cc(S(=O)(=O)N3CCCC(C(=O)NCc4ccc(F)cc4)C3)ccc21 (stereo unspecified)	-4.28%
COc1ccc(-c2nc(SCC(=O)c3ccc(Br)cc3)n[nH]2)cc1	1.02%
Cc1c(CNC2CCC(C)CC2)c(C(=O)O)c(C)n1Cc1ccccc1F (stereo unspecified)	-7.47%
CCC1CN(C(=O)Nc2ccccc2C(F)(F)F)c2ccccc2O1 (stereo unspecified)	6.66%
COc1ccc(/C=C(/C#N)c2nc(-c3cc4ccccc4oc3=O)cs2)cc1	-4.55%
NS(=O)(=O)c1ccc(NC(=O)Cc2cccs2)cc1	active: 38.6%
Cc1ccc2c(c1)c(=O)c(C(=O)c1ccccc1)cn2Cc1ccccc1F	-20.6%
CCOc1cccc(C(=O)Nc2nnc(S(=O)(=O)N(C)c3ccc(C)cc3)s2)c1	-19.4%
COc1ccc(NC(=O)CC2C(=O)N(c3ccccc3)C(=O)N2CCC2=CCCCC2)cc1 (stereo unspecified)	21.3%
COc1cc(NC(=O)C2CCN(S(=O)(=O)c3c(C)noc3/C=C/c3cccs3)CC2)cc(OC)c1	11.6%
COc1ccc(S(=O)(=O)N(CC(=O)Nc2ccc(OC)cc2OC)c2ccc(Cl)cc2)cc1	-17.1%
FC(F)(F)c1ccccc1/C=N/N1CCN(Cc2ccccc2)CC1	active: 30.1%
CCOC(=O)c1ccc(CSc2nnc3cc(C)c4ccccc4n23)cc1	-1.13%
COc1ccccc1NC(=O)CN(c1ccc(C(C)C)cc1)S(=O)(=O)c1c(C)noc1C	-2.94%
O=C(NC1CCCCC1)c1ccc2c(c1)sc1nc(-c3ccccc3)cn12	7.58%
N#Cc1ccc(C(=O)N2CCN(c3nc4ccc(F)cc4s3)CC2)cc1	7.77%
COc1ccc(-c2oc3ncn4nc(-c5ccc(Cl)cc5)nc4c3c2-c2ccc(OC)cc2)cc1	11.6%
COc1cc2c(cc1OC)C(c1ccc(Cl)cc1)N(c1ccc(C)c(F)c1)C(=O)C2 (stereo unspecified)	4.3%
